Data reported in PubChem BioAssay AID2202238 (Ras Initiative Chemistry Research Team, Frederick National …, 2025).
The other results are listed elsewhere or left out. The main result of the screen is listed elsewhere. These columns were measured beside it and carry no call.

Target: GTPase KRas (Homo sapiens) (UniProt P01116)
Assay: Fragment capture on engineered cysteines, share of protein labelled (AID 2202238)
Set-up: protein at 5 µM with 500 µM competing thiol for 1.5 h
Conditions: KRAS G12D cysteine mutants, disulfide tethering, MALDI-TOF labeling, stronger effect = higher value, fragment at 500 µM
[1] = measured here: G75C mutant labeling
[2] = measured here: H94C mutant labeling
[3] = measured here: I36C mutant labeling
[4] = measured here: L120C mutant labeling
[5] = measured here: M67C mutant labeling
[6] = measured here: M72C mutant labeling
[7] = measured here: N86C mutant labeling
[8] = measured here: P121C mutant labeling
[9] = measured here: S122C mutant labeling
[10] = measured here: S136C mutant labeling
[11] = measured here: G60C mutant labeling
[12] = measured here: N26C mutant labeling

Sequence of UniProt P01116 (P01116 whole entry, looked up, the tested form may be a part): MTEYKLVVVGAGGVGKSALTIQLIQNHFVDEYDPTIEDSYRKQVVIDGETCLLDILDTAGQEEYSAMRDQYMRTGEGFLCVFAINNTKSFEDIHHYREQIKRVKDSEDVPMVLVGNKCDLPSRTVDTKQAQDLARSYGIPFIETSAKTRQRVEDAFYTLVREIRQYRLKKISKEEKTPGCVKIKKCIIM

Row | Compound | percent labeling [1] | percent labeling [2] | percent labeling [3] | percent labeling [4] | percent labeling [5] | percent labeling [6] | percent labeling [7] | percent labeling [8] | percent labeling [9] | percent labeling [10] | percent labeling [11] | percent labeling [12]
1 | CCn1cc(NC(=O)CCS)c(C(=O)NCCc2ccccc2)n1 | 18.5% | 15% | 14.6% | 10.4% | 20.4% | 30.4% | 20.8% | 13.4% | 10% | 22.7% | – | –
2 | Cc1cc(C(=O)NCCS)sc1-c1ccccc1 | 12.3% | 15.7% | 8.2% | 16.5% | 9% | 54.9% | 12.4% | 13.5% | 8.9% | 18% | 27.2% | 24.4%
3 | O=C(CCS)NCc1nc(-c2cccs2)n[nH]1 | 58.3% | 28.3% | 43.6% | 44.3% | 47.5% | 26.8% | 17.4% | 33% | 33.7% | 56.7% | – | –
4 | CN(Cc1ccccc1)C(=O)NCCC(=O)NCCS | 13.2% | 40.4% | 30.9% | 40.4% | 45.7% | 29.9% | 25.3% | 36.1% | 32.8% | 49.6% | 35.6% | 31.9%
5 | CC(C(=O)NCCS)C1OCCc2sccc21 (stereo unspecified) | 22.5% | 37.9% | 27.5% | 39.7% | 36.5% | 34.2% | 27.6% | 35.7% | 30.8% | 49.1% | 58.1% | 38.9%
6 | O=C(NCCS)c1cc(N2CCCC2=O)ccc1F | 30% | 42.4% | 31.9% | 49.7% | 39.6% | 53.1% | 38.6% | 33.3% | 37.2% | 64.4% | 39.7% | 47.5%
7 | O=C(CCS)NC1CCN(C(=O)CCc2ccccc2)CC1 | 14.7% | 36.9% | 57.3% | 27.8% | 52.5% | 26.9% | 25.8% | 36% | 35.3% | 59.4% | – | –
8 | O=C(CCS)Nc1cnn(-c2cnc3ccccc3n2)c1 | 0% | 8.4% | 19.7% | 9.6% | 7.8% | 41.4% | 7.4% | 7% | 7.7% | 17.4% | – | –
9 | O=C(CCS)N1CCOCC1c1noc(-c2ccccc2)n1 (stereo unspecified) | 16% | 27.7% | 29.1% | 34.1% | 45.6% | 36.4% | 17.8% | 42.8% | 21.1% | 44.9% | – | –
10 | O=C(NCCS)C1CCCCN1C(=O)C1CCCC1 (stereo unspecified) | 14.6% | 41.5% | 29.6% | 47.4% | 34.9% | 30.4% | 27.7% | 34.5% | 33.2% | 51.3% | 36.7% | 33.6%
11 | COc1ccc2[nH]c(C)c(C(=O)NCCS)c2c1 | 18.4% | 42.6% | 16.7% | 43.5% | 27.2% | 47.5% | 19% | 19.1% | 19.6% | 47.3% | 32.6% | 43.5%
12 | Cc1cc2c(cc(C(=O)NCCS)n2CC(F)(F)F)s1 | 9.5% | 10.3% | 8.3% | 6.9% | 7.3% | 44.2% | 8.7% | 7.8% | 4.1% | 11% | 17.7% | 25.6%
13 | O=C(NCCS)C1CCCN1C(=O)Cc1ccc2ccccc2c1 (stereo unspecified) | 22.1% | 32% | 21.3% | 36% | 49.4% | 35.3% | 18.5% | 26.5% | 16.7% | 33.3% | 51.3% | 36.7%
14 | CC(C)(COc1ncccc1Br)NC(=O)CCS | 17.7% | 32% | 28.9% | 18.5% | 38.4% | 38.7% | 25.3% | 26% | 24% | 52.7% | – | –
15 | O=C(NCCS)[C@@H]1OCCO[C@@H]1C(F)(F)F | 17.6% | 35% | 19.7% | 42.1% | 28% | 20.2% | 42.9% | 31.1% | 31.8% | 37.6% | 25.3% | 33.2%
16 | Cc1sc(=O)n(CCC(=O)NCCS)c1C | 11.6% | 25.4% | 28.1% | 29% | 25.4% | 18% | 19.9% | 28.5% | 22.8% | 38.7% | 29.2% | 29.2%
17 | CN(Cc1ccc(-c2ccc(Br)cc2)o1)C(=O)CCS | 16.3% | 67.7% | 17.9% | 13.1% | 16.7% | 43.5% | 16.9% | 19.2% | 6% | 27.9% | – | –
18 | CCc1ccc(-c2csc(NC(=O)CCS)n2)s1 | 17.1% | 25.9% | 21.1% | 16.8% | 14.5% | 40.3% | 21.9% | 18.5% | 10.5% | 39.4% | – | –
19 | O=C(CN1CCC(c2ccccc2)NC1=O)NCCS (stereo unspecified) | 13.8% | 34.4% | 25.2% | 45.5% | 38.2% | 36.6% | 23% | 33.2% | 33.7% | 47.1% | 35.7% | 40.1%
20 | Cc1nc2c(C#N)c[nH]n2c(=O)c1CC(=O)NCCS | 7.3% | 25.1% | 16% | 46.4% | 19% | 7% | 22.7% | 24.2% | 31.8% | 25.1% | 20% | 26.9%
21 | Cn1ccnc1N1CCC(C(=O)NCCS)C1 (stereo unspecified) | 4.7% | 8.6% | 6.2% | 8.7% | 10.1% | 0% | 3.8% | 7.6% | 5.5% | 16.7% | 8% | 9.8%
22 | CN(C)CCN(Cc1ccco1)C(=O)CCS | 15.6% | 37.3% | 50.5% | 29.1% | 42.4% | 33.3% | 32.8% | 33.1% | 32% | 53.9% | – | –
23 | O=C(CCS)NCc1nnc2n1CCC(C(F)(F)F)C2 (stereo unspecified) | 6.4% | 24.4% | 35.2% | 29.6% | 32.1% | 9.2% | 17.8% | 28.3% | 28.9% | 41.2% | – | –
